Results reported in PubChem BioAssay AID463173 (ICCB-Longwood Screening Facility, Harvard Medical School, 2010).
About 4,300 (8.3%) of roughly 52,000 compounds were called active. Cut-off read from the data, not from the text of the source: active = survival mostly below about 52% (no sharp cut-off); inactive = mostly above about 56%. Some of the results follow.

Tested on: DeltatarO mutant
Test: S. aureus survival, RN4220 and DeltatarO strains – OD600, teichoic acid synthesis inhibitors, primary screen (AID 463173)
Conditions: S. aureus RN4220 wild type/DeltatarO growth, OD600, 18 h, hits give low values, screened at 18.75 µg/mL (by protocol)

Row | Compound | survival
1 | Cc1ccc(CNC(=O)c2ccc(Cn3c(=O)c4ccccc4n(CC(=O)Nc4ccc(C)cc4C)c3=O)cc2)cc1 | inactive: 79%
2 | CCOc1ccc(S(=O)(=O)NCCc2sc3nc(-c4ccc(F)cc4)nn3c2C)cc1 | inactive: 67%
3 | Cc1nc(C)c(C(=O)Nc2ccccc2)s1 | inactive: 70%
4 | CCn1c2ccccc2c2cc(CN3CCN(Cc4ccccc4F)CC3)ccc21 | active: 7%
5 | CCOc1ccc(CCNC(=O)c2cn(CC)c3ccc(S(=O)(=O)N4CCc5ccccc5C4)cc3c2=O)cc1OCC | inactive: 72%
6 | Cc1ccc(C)c(Nc2nnc(-n3nc(C)cc3C)c3ccccc23)c1 | inactive: 82%
7 | O=C(Nc1cccc(F)c1)c1ccc2snnc2c1 | inactive: 83%
8 | CCN(c1ccccc1)S(=O)(=O)c1nnc(NC(=O)c2cccs2)s1 | active: 28%
9 | Cc1ccc(Cl)cc1-n1ncc2c(NC3CCCCCC3)ncnc21 | inactive: 130%
10 | Cc1ccc(C(=O)N2CCN(c3ncnc4c3cnn4-c3ccccc3)CC2)cc1 | inactive: 63%
11 | COc1cc(C(=O)Nc2ccc3nc(SCc4ccc(C)cc4)sc3c2)cc(OC)c1OC | inactive: 98%
12 | CC(=O)c1ccc(S(=O)(=O)Nc2cccc(-c3ccc(N4CCCCCC4)nn3)c2)cc1 | inactive: 97%
13 | CCCC(=O)N1CCN(c2nc3c(OC)ccc(C)c3s2)CC1 | inactive: 55%
14 | CC(C)(C)OC(=O)N1CCC(c2c(C(=O)N3CCN(C(=O)c4ccco4)CC3)cnn2-c2cccc(F)c2)CC1 | inactive: 73%
15 | CCOc1ccc(-n2c(SCC(=O)N3CCOCC3)nc3c([nH]c4ccccc43)c2=O)cc1 | active: 0%
16 | CC(C)CC(=O)Nc1ccc(Cl)cn1 | inactive: 76%
17 | Cc1c(S(=O)(=O)c2cccc(Cl)c2)nnn1-c1cccc(C(F)(F)F)c1 | inactive: 70%
18 | Cc1ccc(CNC(=O)C(CC(C)C)NS(=O)(=O)c2ccc3c(c2)oc(=O)n3C)cc1 (stereo not given) | inactive: 86%
19 | O=C(NCc1ccc(Cl)cc1)c1cnc(N2CCCCC2)c2ccccc12 | inactive: 84%
20 | Cc1cccc(N2CCN(CCNC(=O)C3COc4ccccc4C3)CC2)c1C (stereo not given) | inactive: 112%
21 | O=c1cc(CSc2nnc(-c3ccccc3)o2)c2ccccc2[nH]1 | inactive: 95%
22 | C/C=C(\C)C(=O)OC1c2c(ccc3ccc(=O)oc23)OC(C)(C)C1OC(C)=O (stereo not given) | inactive: 60%
23 | COc1ccc(CNC(=O)C2CCN(Cc3nc(-c4ccc(Cl)cc4)oc3C)CC2)cc1 | inactive: 100%

Row | Compound | survival
24 | Cc1ccc(S(=O)(=O)NCCS(=O)(=O)N2CCN(c3ccccc3)CC2)cc1 | inactive: 75%
25 | Cc1nc(N2CCOCC2)c2c(C(=O)Nc3cccc(C(F)(F)F)c3)c(C)oc2n1 | inactive: 101%
26 | Cc1ccc(Cc2nc3ccccc3nc2SCC(=O)Nc2ccc3c(c2)OCO3)cc1 | inactive: 88%
27 | CSc1ccc(CCNC(=O)CCc2c(C)nc3c(c(C)nn3-c3ccccc3)c2C)cc1 | inactive: 89%
28 | O=C(NC1CC(=O)N(c2cccc(F)c2)C1)c1ccc(Br)o1 (stereo not given) | inactive: 101%
29 | CCOC(=O)c1cc(S(=O)(=O)N2CCN(c3ccccc3)CC2)[nH]n1 | inactive: 77%
30 | Cc1ccc2nc(N(Cc3cccnc3)C(=O)COc3ccccc3)sc2c1 | inactive: 113%
31 | CCOC(=O)Cn1c(=O)oc2cc(S(=O)(=O)N3CCN(c4cccc(C)c4C)CC3)ccc21 | inactive: 67%
32 | O=C(Nc1c(Cl)cccc1Cl)c1cc(-c2ccc3c(c2)OCO3)on1 | active: 39%
33 | COC(=O)c1c(-c2ccc(Cl)cc2)noc1N1CCN(c2ccc(C)cc2C)CC1 | inactive: 99%
34 | CC(C)c1ccc(NC(=O)C2CCCN(S(=O)(=O)c3cccc4cccnc34)C2)cc1 (stereo not given) | inactive: 71%
35 | CCCCN(C)CCCNC(=O)C1CCN(c2nc3ccc(CC)cc3s2)CC1 | inactive: 71%
36 | O=C(O)C1C2C=CC(C2)C1C(=O)N(Cc1ccccc1)Cc1ccccc1 (stereo not given) | inactive: 80%
37 | Cc1sc2ncn(CC(=O)N3CCC(C)CC3)c(=O)c2c1C | inactive: 77%
38 | O=C(CSc1nnnn1Cc1ccccc1)c1ccccc1 | inactive: 81%
39 | COc1ccc(OC)c(NC(=O)c2noc3c2CCCC3)c1 | inactive: 99%
40 | CCOC(=O)Cc1ccc(NC(=O)N2CCOc3ccc(C)cc32)cc1 | inactive: 80%
41 | CC1=C(c2ccc(C)c(C)c2)S(=O)(=O)N(Cc2ccc(C(=O)NCc3cccc(C)c3)cc2)C1=O | inactive: 77%
42 | Cc1cccc(NC(=O)c2oc3ccccc3c2NC(=O)Cc2coc3c(C)c(C)ccc23)c1 | inactive: 62%
43 | CCC(C(=O)Nc1cc(Cl)ccc1OC)n1nc(-c2ccccc2)ccc1=O (stereo not given) | active: 24%
44 | Cc1ccc(Nc2c(-c3c[nH]c4ccccc34)nc3cc(C)ccn23)cc1 | active: 80%
45 | COc1cc(OC)c(OC)cc1/C=C/c1nc2cc3ccccc3cc2c(=O)n1-c1ccc(Cl)cc1 | inactive: 83%
46 | CCOc1ccccc1NC(=O)CSc1nc2c(oc3ccccc32)c(=O)n1-c1ccc(C)c(C)c1 | inactive: 88%

Row | Compound | survival
47 | COc1ccc(-c2nn3c(=O)cc(CN4CCN(C(=O)c5ccc(C(C)(C)C)cc5)CC4)nc3s2)cc1 | inactive: 91%
48 | CC(C)OCCCNC(=O)c1ccc2c(c1)N(Cc1c(F)cccc1Cl)C(=O)c1ccccc1S2 | inactive: 76%
49 | COc1ccc(C(=O)NCC(c2cccnc2)N2CCc3ccccc32)cc1 (stereo not given) | active: 46%
50 | Cc1ccc(Oc2c(C(F)(F)F)oc3c(CN4CCCCC4C)c(O)ccc3c2=O)cc1 (stereo not given) | inactive: 58%
51 | CCn1c(NCc2cccc(Cl)c2)nc2ccccc21 | inactive: 102%
52 | COc1cccc(C(=O)NC2=NC(c3ccc(N(C)C)cc3)CC(=O)N2)c1 (stereo not given) | inactive: 56%
53 | O=C(CSc1nc(-c2ccccc2)cn1-c1ccccc1)Nc1ccccc1 | inactive: 83%
54 | COc1cc(-c2nc3ccc(C)cn3c2Nc2ccc(Cl)cc2)ccc1O | inactive: 42%
55 | O=C(NCCCN1CCCCC1)c1cc(Sc2ccc(Cl)cc2)nc2ccccc12 | active: 17%
56 | COc1cccc(-c2nnc3n(Cc4ccccc4Cl)c(=O)c4ccccc4n23)c1O | inactive: 91%
57 | O=C(NCc1ccc2c(c1)CCN2C(=O)c1ccncc1)c1ccc(Cl)cc1 | inactive: 95%
58 | CC(C)Oc1ccc(CNC(=O)CCCn2c(=O)c3cccn3c3cccnc32)cc1 | inactive: 111%
59 | Cc1ccc(S(=O)(=O)Nc2c(C)nn(C)c2C)cc1 | inactive: 89%
60 | COCCN(CCOC)C(=O)c1cc2c(=O)n3ccccc3nc2n1C | inactive: 51%
61 | Cc1c(Cl)cccc1NC(=O)CN1C(=O)CCn2nc(-c3cccn3C)cc21 | inactive: 74%
62 | O=S(=O)(c1ccc(Br)cc1)c1nnn2c1nc(NCc1cccs1)c1sccc12 | inactive: 66%
63 | CC(=O)c1ccc(N2CCN(C3C(=O)c4ccccc4N3C(C)=O)CC2)cc1 (stereo not given) | inactive: 71%
64 | COc1ccc(-c2cc(C(=O)NCCc3ccccc3)c3cc(C(C)C)ccc3n2)cc1 | inactive: 76%
65 | COc1ccc(Cl)cc1NC(=O)c1nn(C)c2c1CS(=O)(=O)c1ccccc1-2 | inactive: 53%
66 | CCOc1cc(-c2nc(-c3ccc(-c4ccc(OC)cc4)nc3OC)no2)cc(OCC)c1OCC | inactive: 75%
67 | COCCCNC(=O)C1CCN(c2cc(C)nc3c(-c4ccc(OC)c(OC)c4)c(C)nn23)CC1 | inactive: 68%
68 | CC(=O)N/N=C/c1ccc(C)c(C)c1C | inactive: 83%
69 | COc1ccc(-n2cc(C(=O)NCc3cccc(OC)c3)c3ccccc3c2=O)cc1 | inactive: 110%

Row | Compound | survival
70 | Cc1cc(C)c(C(=O)Nc2ccccc2)c(SCC(=O)Nc2ccc(Br)cc2C)n1 | active: 38%
71 | Cc1ccc(Cn2c(C(=O)O)c(CNCCc3ccco3)c3ccc(C)cc32)cc1 | inactive: 81%
72 | COc1ccc(-n2c(=O)c3ccc(C(=O)NCc4ccc(C)cc4)cc3n(CC(=O)Nc3ccc(C)cc3)c2=O)cc1 | inactive: 81%
73 | O=C1C2C3C=CC(C3)C2C(=O)N1CN(Cc1ccccc1)CN1C(=O)C2C3C=CC(C3)C2C1=O (stereo not given) | inactive: 77%
74 | O=c1[nH]c(SCc2ccc(Br)cc2)nc2c1CCCC2 | inactive: 52%
75 | Cc1ccc(S(=O)(=O)c2nnn3c2nc(N2CCN(c4ccccc4F)CC2)c2ccccc23)cc1C | inactive: 77%
76 | CC(NC(=O)Cn1c(-c2cccs2)cc2cc(F)ccc21)c1ccccc1 (stereo not given) | inactive: 94%
77 | CC1=C(C(=O)Nc2ccccc2C)C(c2ccccn2)n2nc(SCc3ccccc3F)nc2N1 (stereo not given) | inactive: 60%
78 | O=C(CN1CCC(N2CCCCC2)CC1)c1ccc(F)cc1 | inactive: 96%
79 | O=C(CSc1nc(=O)n(Cc2ccco2)c2c1CCC2)NCc1ccc(F)cc1 | inactive: 101%
80 | COc1ccc2nc(NC(=O)c3ccc(S(=O)(=O)N4CCCC(C)C4)cc3)sc2c1 (stereo not given) | inactive: 102%
81 | N/C(=N\OC(=O)c1cccs1)c1ccccc1 | inactive: 87%
82 | Cc1nc2nc(NC(=O)c3ccc(Cl)cc3)[nH]n2c(=O)c1Cc1ccccc1 | inactive: 105%
83 | CCc1ccc(NC(=O)CSc2nc(=O)n(Cc3ccco3)c3c2CCC3)cc1 | inactive: 90%
84 | Cc1cccc(-n2c3nc(=O)n(C)c(=O)c-3cc3ccc(Cl)cc32)c1C | inactive: 81%
85 | Cc1noc2ncnc(NCc3cccc(Cl)c3)c12 | inactive: 97%
86 | CCc1c(C)nc2ncnn2c1N1CCC(C(=O)Nc2ccccc2)CC1 | inactive: 63%
87 | Cc1c(C(=O)N2CCC(C(=O)Nc3ccc(F)cc3)CC2)sc2nc[nH]c(=O)c12 | inactive: 62%
88 | Oc1cccc(Nc2ncnc3sc4c(c23)CCCC4)c1 | inactive: 57%
89 | CS(=O)(=O)N1CCc2cc(C(=O)NCc3ccccc3)ccc21 | inactive: 81%
90 | CC(C)(C)C(=O)N1CCN(c2nc3c(F)cccc3s2)CC1 | inactive: 82%
